According to the supplement of paper PMC11417369:
Some of the results follow.

system: PfSIP2 AP2 domain 1 (GST-tagged); experiment: gcPBM binding intensity (ln(normalized median fluorescence intensity)); higher = stronger DNA binding
Summary of the method: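 GST-fused DNA-binding domains of P. falciparum, expressed in E. coli, were applied at about 25 μg on average for 1 h to an Agilent 4 × 180k array of primer-extended double-stranded 36-bp intergenic genomic probes and negative controls. Binding intensity is the highest Masliner-normalised natural-log median intensity across replicate spots of either probe orientation, measured with Alexa488 anti-GST antibody and a 488 nm scan.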

Sequence	gcPBM binding intensity (ln)
TTTAATTTTCGGTGTGCACACAACTATGAGTTTTTA [CACACA_site3034]	8.63
TTTAAAAAAAAAAATACACACATAAAAATTTTCAAA [CACACA_site703]	6.8
TTCAAGCCCTTCTGCTTACACACAGTAATTATTGTG [CACACA_site2952]	6.7
TATTTTTATTATATGGTGCATATATACATACATATA	10.4
AAGTGCATATTATTCACACATAATAATTGTATACCT [CACACA_site5965]	8.63
AAAAAAAAAAAACACACACACAATAGTATATAAATC [CACACA_site956]	6.92
ATATGATCATAAAACACACACACAAAAAAAAAAAAA [CACACA_site1806]	6.97
ATCCACTTTTTGAAGACACACACAAAAAAAAAAAAA [CACACA_site8818]	7.21
AATTAGATGGATAAATGTACATAATGTGAATATATT [XGTACX_site86]	6.97
TAAAAATAATTTGCATGTACATAGGTCGATGTATTT [XGTACX_site1357]	7.08
TGTAAATTATAACGTGCACACATATTTAAAATGAAA [CACACA_site8915]	10.6
ATATAGAAAATGCATACACACTTTATAAATATATTT [CACACA_site6553]	7.08
AGATATTTATTGAGTGCATGTTATAAAGGGAAAAAA [TGCATGCA_site88]	10.3
TTTTTTTTTTTTTTTTTTTTCACATGTGTGGAAAAA [GTGCAC_negctrl_site352]	7.27
AATTTAAAATATATAGTACACACGTGAACACAAATA [CACACA_site416]	6.95
TTAAAATATACATAAACACACACAAAACGTTTAAGA [CACACA_site8267]	6.95
AGGATATATAAGTATACACACATATTTATATTTATA [CACACA_site6239]	6.88
TAACAATAACTTTATACACACATAATATATATATAT [CACACA_site3543]	8.97
TGTATTTATAATAAAACACACATTTTTAATGTGCTC [CACACA_site4908]	6.66
CATATACTTCTGTGCACACGAATATTTTTCTTCTTC [CACACA_site1407]	8.86
TGTTGTCCTAATTCTACACACAATGGTTTATTAAAA [CACACA_site2648]	7.39
TTTTAACGTAAAACATTGATGATATAAAAAATAGGA [GTGCAC_negctrl_site540]	7.3
TATACTCATATTTTTACACACATATTTTTTCATATA [CACACA_site5412]	7

Sequence	gcPBM binding intensity (ln)
TTTGTGTTTATAAATTGTACAAAGGTGCAAGAAGAA [XGTACX_site2159]	11.2
AAAAAAAAAAAAAACACACACACACCCATAAATATA [CACACA_site151]	7.25
ACACAAATAAATATAACATATATATTATATTATATT [CACACA_negctrl_site710]	7.25
TTTATATAAATTTTTTGTACACAAGTAAAAACGCGT [XGTACX_site2459]	7.21
ATAAAATATATATATATAAAAATAAATACATAAATA [GTGCAC_negctrl_site157]	7
CAAACAAACAGACACACACACACACCCAAAAATGAT [CACACA_site2430]	7.15
TCAATATTAAATTATTGTACATGTATGTATATATAT [XGTACX_site3861]	7.94
TTTTTTTTTTTTTTTTTACACACTTTATTCAAACAA [CACACA_site9360]	7.05
AAAAAAAAAAATATATTAAAATAAAAAATATTAACA [GTGCAC_negctrl_site13]	6.69
TACACCCACCCACATACACACACATACACATATATA [CACACA_site8503]	7.48
CCACTTAAAATAAAAAGTACATACAGGTGTTATACA [XGTACX_site8124]	7.14
AATAATGTTATAAATTGTACGTGTATTATTCATTAC [XGTACX_site894]	7.04
TAATGAGGAAATACAGCACACGTTATTACACTTTTC [CACACA_site5399]	6.83
AAATTGGTTCATCAATGTACATGTAAAATAAATCAA [XGTACX_site4795]	7.04
TATATTTATCCATACAAGAAAAAAAAAAAAAAAATA [CACACA_negctrl_site1328]	6.82
CAAATAAAAACAAAACGTACGAATAAATTATTGTTA [XGTACX_site5136]	6.9
TATTTGATCTAAAGAGCATGCAAAAACGAACAAGAT [TGCATGCA_site136]	7.57
ATATCGTTATTTTTATGTACTAAAATATTTAATTAT [XGTACX_site3516]	7.09
CACATATAAATATTAACACACATAATGAATTATATA [CACACA_site2741]	6.94
ATATATAAAAATTAGGTGCATTAAATTAAAATATAT	10.3
TTTAAATAAAATATTACACACTTAGAAAGATATATA [CACACA_site7684]	6.8
TTTTTTTTTTATTGTACATGCAAAAAATTCCACACA [TGCATGCA_site279]	8.18
